IC50 is the fitted dose that halves viability relative to control wells, and lower means more sensitive; where the fit passes the top or lowest dose, that dose stands as a limit. AUC, from the same fit, is the share of area under the viability curve across the 256-fold dose range; it is 1 without any effect and falls as sensitivity rises. For part of these data: Where the top dose is marked as inferred, it comes from the curve model; the source does not state it.
Assays:
Assay in all cases: Viability of human cancer cell lines after 72 h of drug (GDSC screen)
VX-11e = compound: Cc1cnc(Nc2ccc(F)cc2Cl)nc1-c1c[nH]c(C(=O)N[C@H](CO)c2cccc(Cl)c2)c1 [VX-11e]; conditions: top dose 5.12 µM; top dose inferred
Experimental: (§1)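 Human cancer cell lines in 384-well plates, medium with 10% serum, drug for 72 h over a 256-fold dose range (nine 2-fold or five 4-fold steps up to the top dose). Adherent lines were fixed and stained with the nucleic acid dye Syto60, suspension lines read with resazurin; signal relative to control wells, capped at 0 and 100%. One two-parameter sigmoid per drug and line, fitted in a mixed model over all curves with the slope shared within a line.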

Dimethyloxalylglycine = compound: COC(=O)CNC(=O)C(=O)OC [Dimethyloxalylglycine]; conditions: top dose 4000 µM; top dose inferred
Experimental: as §1

Doxorubicin = compound: COc1cccc2c1C(=O)c1c(O)c3c(c(O)c1C2=O)C[C@@](O)(C(=O)CO)C[C@@H]3O[C@H]1C[C@H](N)[C@H](O)[C@H](C)O1 [Doxorubicin]; conditions: top dose 1.024 µM
Experimental: as §1

17-AAG = compound: C=CCNC1=C2C[C@@H](C)C[C@H](OC)[C@H](O)[C@@H](C)/C=C(\C)[C@H](OC(N)=O)[C@@H](OC)/C=C\C=C(/C)C(=O)NC(=CC1=O)C2=O [17-AAG]; conditions: top dose 1 µM
Experimental: as §1

TG101348 = compound: Cc1cnc(Nc2ccc(OCCN3CCCC3)cc2)nc1Nc1cccc(S(=O)(=O)NC(C)(C)C)c1 [TG101348]; conditions: top dose 10.24 µM
Experimental: as §1

Vismodegib = compound: CS(=O)(=O)c1ccc(C(=O)Nc2ccc(Cl)c(-c3ccccn3)c2)c(Cl)c1 [Vismodegib]; conditions: top dose 10 µM; top dose inferred
Experimental: as §1

BIX02189 = compound: CN(C)Cc1cccc(N=C(c2ccccc2)c2c(O)[nH]c3cc(C(=O)N(C)C)ccc23)c1 [BIX02189]; conditions: top dose 20 µM; top dose inferred
Experimental: as §1

CCT018159 = compound: CCc1cc(-c2n[nH]c(C)c2-c2ccc3c(c2)OCCO3)c(O)cc1O [CCT018159]; conditions: top dose 10 µM; top dose inferred
Experimental: as §1

OSI-027 = compound: COc1cccc2cc(-c3nc([C@H]4CC[C@H](C(=O)O)CC4)n4ncnc(N)c34)[nH]c12 [OSI-027]; conditions: top dose 20 µM
Experimental: as §1

UNC1215 = compound: O=C(c1ccc(C(=O)N2CCC(N3CCCC3)CC2)c(Nc2ccccc2)c1)N1CCC(N2CCCC2)CC1 [UNC1215]; conditions: top dose 1 µM; top dose inferred
Experimental: as §1

Row | Cell Line | AUC (VX-11e) | IC50 (VX-11e) [µM] | AUC (Dimethyloxalylglycine) | IC50 (Dimethyloxalylglycine) [µM] | AUC (Doxorubicin) | IC50 (Doxorubicin) [µM] | AUC (17-AAG) | IC50 (17-AAG) [µM] | AUC (TG101348) | IC50 (TG101348) [µM] | AUC (Vismodegib) | IC50 (Vismodegib) [µM] | AUC (BIX02189) | IC50 (BIX02189) [µM] | AUC (CCT018159) | IC50 (CCT018159) [µM] | AUC (OSI-027) | IC50 (OSI-027) [µM] | AUC (UNC1215) | IC50 (UNC1215) [µM]
1 | COLO-320-HSR (large intestine, suspension) | 0.974 | > 5.12 | 0.821 | 1920 | 0.818 | 0.482 | 0.992 | > 1 | 0.924 | > 10.2 | 0.983 | > 10 | 0.893 | 18.3 | 0.898 | 9.66 | 0.845 | 11.7 | 0.986 | > 1
2 | COLO-678 (large intestine, semi-adherent) | 0.969 | > 5.12 | 0.75 | 1650 | 0.774 | 0.525 | 0.597 | 0.125 | 0.947 | > 10.2 | 0.974 | > 10 | 0.97 | > 20 | 0.909 | > 10 | 0.94 | > 20 | 0.983 | > 1
3 | COLO-679 (melanoma, adherent) | 0.895 | > 5.12 | 0.464 | 198 | 0.308 | 0.0172 | 0.596 | 0.119 | 0.936 | > 10.2 | 0.983 | > 10 | 0.982 | > 20 | 0.938 | > 10 | 0.757 | 7.64 | 0.983 | > 1
4 | COLO-680N (oesophagus, adherent) | 0.985 | > 5.12 | 0.503 | 255 | 0.441 | 0.043 | 0.807 | 0.629 | 0.908 | > 10.2 | 0.981 | > 10 | 0.982 | > 20 | 0.925 | > 10 | 0.884 | > 20 | 0.985 | > 1
5 | COLO-684 (endometrium, suspension) | 0.92 | > 5.12 | 0.616 | 544 | 0.697 | 0.246 | 0.864 | > 1 | 0.927 | > 10.2 | 0.957 | > 10 | 0.959 | > 20 | 0.846 | 8.69 | 0.226 | 0.177 | 0.976 | > 1
6 | COR-L88 (small cell lung carcinoma, adherent) | 0.986 | > 5.12 | 0.518 | 282 | 0.922 | > 1.02 | 0.907 | > 1 | 0.831 | 8.29 | 0.977 | > 10 | 0.957 | > 20 | 0.969 | > 10 | 0.656 | 3.69 | 0.98 | > 1
7 | CP66-MEL (melanoma, adherent) | 0.937 | > 5.12 | 0.591 | 462 | 0.899 | > 1.02 | 0.794 | 0.534 | 0.984 | > 10.2 | 0.986 | > 10 | 0.985 | > 20 | 0.954 | > 10 | 0.813 | 12.7 | 0.984 | > 1
8 | CPC-N (small cell lung carcinoma, suspension) | 0.977 | > 5.12 | 0.745 | 1360 | 0.513 | 0.0695 | 0.984 | > 1 | 0.738 | 3.3 | 0.937 | > 10 | 0.956 | > 20 | 0.92 | > 10 | 0.474 | 1.06 | 0.974 | > 1
9 | CTB-1 (B-cell lymphoma, suspension) | 0.949 | > 5.12 | 0.344 | 78.3 | 0.498 | 0.0629 | 0.91 | > 1 | 0.635 | 1.74 | 0.952 | > 10 | 0.882 | > 20 | 0.866 | > 10 | 0.133 | < 0.0781 | 0.964 | > 1
10 | CTV-1 (acute myeloid leukaemia, suspension) | 0.962 | > 5.12 | 0.605 | 457 | 0.3 | 0.0201 | 0.95 | > 1 | 0.614 | 1.23 | 0.968 | > 10 | 0.559 | 1.75 | 0.806 | 3.94 | 0.685 | 3.66 | 0.99 | > 1
11 | Ca-Ski (cervix, adherent) | 0.961 | > 5.12 | 0.459 | 191 | 0.458 | 0.0485 | 0.689 | 0.226 | 0.657 | 1.85 | 0.962 | > 10 | 0.902 | > 20 | 0.843 | 8.4 | 0.195 | 0.135 | 0.978 | > 1
12 | Calu-6 (lung adenocarcinoma, adherent) | 0.529 | 0.388 | 0.672 | 817 | 0.723 | 0.306 | 0.965 | > 1 | 0.83 | 7.73 | 0.964 | > 10 | 0.915 | > 20 | 0.878 | > 10 | 0.604 | 2.53 | 0.981 | > 1

Source: the supplement of paper PMC4967469
